# About 200 (0.47%) of roughly 43,000 compounds were called active. Another 12% or so got no clear call; they are omitted. Calls follow the shape of the dose curve; as a rule, active = well fitted cell-killing curve with a large enough effect; inconclusive = small, poorly fitted or top-dose-only effect, or effect the other way; inactive = flat fitted curve, though single readings scatter. The list shows a part of the results.
# Assay: Cell viability qHTS assay in S16 Pmp22-F2sN cells; also: nearly all actives have a fitted effect of over 65% in size
# Settings: S16 Pmp22-F2sN Schwann cells (luciferase reporters placed in the Pmp22 gene) viability, CellTiter-Glo, 24 h; series mostly up to 57.5 µM; activity change, negative = cytotoxicity: at the top concentration
# Method in brief: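 S16 Schwann cells carrying the Pmp22-F2sN reporter, seeded in 1536-well format, were exposed to library compounds for 24 h at 37C. Viability was read as CellTiter-Glo luminescence after 15 min at room temperature.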
# % is scaled to controls: 0 for no effect and ±100 for the full control effect; potency is read from the fitted curve at half-maximal effect.
SMILES,"activity change, negative = cytotoxicity",Potency
CCN(CC)C(=O)Cn1nnc2sc(-c3ccccc3)cc2c1=O,inactive: 0.392%,–
Cc1ccc(CN2CCSc3ccc(C(=O)NCC(C)c4ccccc4)cc32)cc1 (stereo not drawn),inactive: -25.7%,–
COc1ccccc1C(=O)Nc1cc2c(cc1N1CCCC1)n(C)c(=O)c(=O)n2C,inactive: 5.38%,–
CCc1ccc(NC(=O)CSc2nc3ccccc3c(=O)n2CCNC(C)=O)cc1,inactive: 0.728%,–
Cc1ccc(NC(=O)C(C)n2nnc3sc4c(c3c2=O)CCCC4)cc1Cl (stereo not drawn),inactive: -5.35%,–
Cc1c(Cl)cccc1NC(=O)c1ncoc1-c1ccco1,inactive: -11.3%,–
Cc1nc(-c2ccccc2)sc1CCNC(=O)C(=O)Nc1ccc2c(c1)OCO2,inactive: 12.3%,–
CCOC(=O)c1c(C)[nH]c(CCC(=O)NCc2ccccc2Cl)c1C,inactive: 14.7%,–
Cc1c(Cl)cccc1NC(=O)c1ccc2snnc2c1,inactive: 8.11%,–
COc1ccccc1NC(=O)CCN1CCCCC1,inactive: 2.33%,–
CCOc1ccc(OCC)c(NC(=O)C2CCN(c3nnc(-n4cccc4)s3)CC2)c1,inactive: -8.27%,–
Cc1ccn2c(=O)c(C(=O)NCCCN3CCCCC3C)c(O)nc2c1 (stereo not drawn),inactive: 3.29%,–
Cc1ccc(NC(=O)CCSc2nc(-c3ccco3)cc(C(F)(F)F)n2)cc1F,inactive: 0.215%,–
C=CCc1cccc2cc(C(=O)Nc3ccc(F)cc3)c(=O)oc12,inactive: 0.424%,–
COc1ccc2oc(=O)c(C(=O)Nc3ccc(C(=O)O)cc3)cc2c1,inactive: 14.5%,–
FC(F)(F)Oc1ccc2c(c1)NC(c1ccncc1)=NC(c1cccs1)=N2,inactive: -10.4%,–
C=Cc1ccc(Cn2c(C)c(CNCCc3ccccc3C)c(C(=O)O)c2C)cc1,inactive: -3.76%,–
O=C(COc1ccc(Cl)cc1)Nc1ccc(C(=O)OCc2cc(=O)n3ccsc3n2)cc1,inactive: 2.84%,–
COc1ccc(OCC(=O)Nc2nnc3n2CCS3)cc1,inactive: 1.12%,–
CCOC(=O)N1CCN(Cc2nc3cc(NC(=O)c4ccc(OC)cc4)ccc3n2C(C)C)CC1,inactive: -18.8%,–
CC(=O)Nc1ccc(S(=O)(=O)N2CCC(c3nnnn3-c3ccccc3)CC2)cc1,inactive: -4.17%,–
CCOc1ccc(-n2nc(CO)c(C(=O)NCCCc3ccccc3)n2)cc1,inactive: -15.3%,–
CCOc1ccc(NC(=O)CC2C(=O)N(c3ccc(C)cc3)C(=O)N2CCC2=CCCCC2)cc1 (stereo not drawn),inactive: 10%,–
Nc1nonc1-c1nc2ccccc2n1Cc1cccc(Cl)c1,inactive: 7.59%,–
Cc1ccc(CN(C(=O)c2ccccc2F)c2ccccn2)o1,inactive: 12.4%,–

SMILES,"activity change, negative = cytotoxicity",Potency
O=C(c1cccn2c(=O)c3cc(Cl)ccc3nc12)N1CCN(c2ccccc2F)CC1,inactive: 9.4%,–
CCOC(=O)c1ccccc1NC(=O)CSc1nc(=O)[nH]c2c1CCC2,inactive: 4.36%,–
Cc1ccccc1CN1C(=O)C2(c3ccccc31)N(c1ccccc1)C(=O)CS2(=O)=O (stereo not drawn),inactive: -4.28%,–
COc1ccc(CCNC(=O)c2c(O)nc3ccccn3c2=O)cc1,inactive: 5.34%,–
COc1ccc(Cl)cc1NC(=O)Cn1cc(C(=O)c2ccc(C)cc2)c(=O)c2ccc(C)nc21,inactive: 3.29%,–
CCOc1ccc(C(=O)Nc2cccc(C(=O)OCc3cc(=O)n4nc(C5CC5)sc4n3)c2)cc1,inactive: 5.5%,–
CSc1cccc(NC(=O)CN2CCN(Cc3ccccc3C)S2(=O)=O)c1,inactive: 1.32%,–
CCCS(=O)(=O)N1CC(=O)N(c2cc(C)ccc2C)C(C)(C(=O)NC2CCCCCC2)C1 (stereo not drawn),inactive: 0.22%,–
Cc1cccc(N2CCn3c2nc2c3c(=O)n(CCc3ccccc3)c(=O)n2C)c1,inactive: 5.31%,–
COc1cccc(-c2cn3c(n2)sc2cc(C(=O)NCCc4ccc(OC)c(OC)c4)ccc23)c1,inactive: -1.28%,–
CC(C)N1C(=O)C(O)(c2c[nH]c3ccccc23)c2ccccc21 (stereo not drawn),inactive: -24.7%,–
N#CC1=C(N)N(c2cccc(Cl)c2)C2=C(C(=O)CCC2)C1c1cc(CN2CCOCC2)cs1 (stereo not drawn),inactive: 0.396%,–
CCOc1ccc(-c2cc(C(=O)Nc3ccc(NC(C)=O)cc3)no2)cc1,inactive: 1.26%,–
CCOc1ccc(OCC)c(NC(=O)CC(C)n2nc(C)cc2C)c1 (stereo not drawn),inactive: -0.878%,–
Cc1cc(C)cc(Oc2coc3cc(OCC(=O)NC4CCCCC4)ccc3c2=O)c1,inactive: -24.4%,–
Cc1cc(N)c(-n2cc3c(c2-c2ccc(Br)cc2)c(=O)n(C)c(=O)n3C)cc1C,inactive: -14.3%,–
Clc1cccc(CNc2cc(-c3ccccc3)nc3nncn23)c1,inactive: -11%,–
Cc1cc(C)c(NC(=O)CCn2c(=O)c3cccn3c3cccnc32)c(C)c1,inactive: 11.1%,–
OCCN1CCN(C(c2ccccc2Cl)c2sc3nc(-c4ccco4)nn3c2O)CC1 (stereo not drawn),inactive: 0.142%,–
CCOc1ccc(N(CC)C(=O)C2CCN(S(=O)(=O)c3cccc4nonc34)CC2)cc1,inactive: 17%,–
COc1cc(NC(=O)Cn2nnc(-c3ccc(C(F)(F)F)cc3)n2)c(C(=O)O)cc1OC,inactive: 0.258%,–
CCC(=O)n1nc(-c2cccnc2)nc1NCc1ccc(F)cc1,inactive: 0.0668%,–
O=C(Cn1c(=O)oc2cc(S(=O)(=O)NCc3ccccc3)ccc21)Nc1ccc(F)c(Cl)c1,inactive: -1.98%,–
COc1ccc(CCC(=O)NC2CC(=O)N(c3cccc(F)c3)C2)cc1 (stereo not drawn),inactive: 0.993%,–
Cc1ccc(NC(=O)c2c(C)oc3ncnc(N4CCCCC4)c23)cc1Cl,inactive: 17.7%,–

SMILES,"activity change, negative = cytotoxicity",Potency
Cc1ccc(-n2nc(C)c3c(C)cc(=O)n(CC(=O)N4CCCc5ccccc54)c32)cc1,inactive: -6.2%,–
CCn1cc(S(=O)(=O)c2cccc(Cl)c2)c(=O)c2cc(F)c(N3CCC(C)CC3)cc21,inactive: 3.97%,–
COc1ccc(C)cc1NC(=O)CCc1c(C)nn(-c2ccc(N3CCOCC3)nn2)c1C,inactive: -15.8%,–
O=C(Cc1ccc(Cl)cc1)Nc1nnc2n1CCS2,inactive: -5.08%,–
CCc1ccc(NC(=O)Cn2ccn(Cc3ccccc3OC)c(=O)c2=O)cc1,inactive: 7.36%,–
COc1cccc(CNC(=O)Cc2csc3ccccc23)c1OC,inactive: 3.38%,–
Cc1cc(C)c(NS(=O)(=O)c2ccc(-c3cnc(C4CC4)o3)cc2)c(C)c1,–,active: 0.794 µM
COc1ccc(NC(=O)C(=O)NCC2(c3ccc(OC)c(OC)c3)CCCC2)cc1,inactive: -0.905%,–
O=C(COCc1cc(-c2cccs2)on1)NCc1ccc(Cl)cc1,inactive: 7.57%,–
COc1ccc(Cl)cc1NC(=O)CCS(=O)(=O)c1cccc2nonc12,inactive: 20.7%,–
COCCNC(=O)CCC(=O)N1Cc2cccc(OC)c2Oc2ncccc21,inactive: 2.54%,–
CCSc1nnc2c(n1)OC(c1ccc(C)cc1)N(C(C)=O)c1ccccc1-2 (stereo not drawn),inactive: -25.1%,–
COc1ccc(CNC(=O)CCCN2C(=O)CSc3c2c(C)nn3-c2ccccc2)c(OC)c1,inactive: 26.2%,–
O=c1n(Cc2cccc(F)c2)c2ccccc2c2nc(-c3ccccc3)nn12,inactive: 7.78%,–
CN(C)C=NC(=O)c1cc2c(n(-c3ccccc3)c1=O)CC(C)(C)CC2=O,inactive: 17.3%,–
Cc1c(CC(=O)N2CCCCC2)c(=O)oc2c(C)c3occ(C(C)(C)C)c3cc12,inactive: 0.964%,–
CCOc1ccc(CCNC(=O)CSc2n[nH]c(-c3ccccc3)n2)cc1OCC,inactive: 0.408%,–
Cc1ccc(CN2CCSc3ccc(C(=O)NCCc4ccccc4)cc32)cc1,inactive: 4.41%,–
COc1ccc(CN(C(=O)Nc2cccc(Cl)c2)c2ccccn2)cc1OC,inactive: -23.9%,–
COc1cccc(CSc2nc3n(n2)C(c2cccc(F)c2)C(C(=O)Nc2ccccc2C)=C(C)N3)c1 (stereo not drawn),inactive: 7.32%,–
CN(C)c1cc2c(cc1NS(=O)(=O)c1ccccc1)n(C)c(=O)n2C,inactive: -5.69%,–
CCOc1ccc(-n2c(SCC(=O)NCc3ccco3)nc3c([nH]c4ccccc43)c2=O)cc1,inactive: 8.35%,–
Cc1cccc(-c2nnc3n(CCc4ccccc4)c(=O)c4ccccc4n23)c1,inactive: -20.9%,–
COc1ccc2c(Sc3ccccc3)c(C(=O)NCc3ccc(OC(C)C)cc3)[nH]c2c1,inactive: 3.94%,–
COc1cccc(CNC(=O)c2cc3n(n2)CCCN(Cc2ccc(C)cc2)C3=O)c1OC,inactive: -7.07%,–

SMILES,"activity change, negative = cytotoxicity",Potency
CCN(Cc1ccccc1)C(=O)Cn1c(=O)n(-c2ccc(OC)cc2OC)c(=O)c2c(C)c(C)sc21,inactive: -29.4%,–
CCOc1ccc(NC(=O)c2c(NC(=O)Cc3ccccc3)sc3c2CCCC3)cc1,inactive: 6.14%,–
COc1ccc(Cl)cc1NC(=O)Cn1c(=O)n(Cc2ccco2)c(=O)c2ccc(C(=O)NC3CCCC3)cc21,inactive: -0.163%,–
CCOc1ccc(CNC(=O)c2ccc(-c3nc(CSc4ccc(C)cc4)c(C)o3)cc2)cc1,inactive: -0.319%,–
Cc1ccc(NC(=O)c2sc(-n3nc(C)c(Cc4ccc(Cl)cc4)c3C)nc2C)cc1,inactive: 1.43%,–
Cc1ccc(-n2c3nc(=O)[nH]c(=O)c-3cc3c(Cl)cccc32)cc1,inactive: -5.14%,–
Cc1ccc(C)c(NC(=O)N2CCN(C)c3ncccc32)c1,inactive: 12.6%,–
Cc1ccc(Cn2ccnc2SCC(=O)Nc2ccc3c(c2)OCO3)cc1,inactive: -2.72%,–
CCc1nc2nc(C)cc(Nc3ccc(Br)cc3F)n2n1,inactive: -6.69%,–
CCCCn1c2ccccc2c2nnc(SCC(=O)Nc3ccc(NC(C)=O)cc3)nc21,inactive: -20.9%,–
Cc1oc2ccc(O)c(CN(C)Cc3ccccc3)c2c1C(=O)Nc1cccc(Cl)c1C,inactive: -22.4%,–
Cc1ccc2c(=O)c(C(=O)c3ccc(F)cc3)cn(CC(=O)NC3CCCCC3)c2n1,inactive: -2.4%,–
CC(=O)Nc1ccc(S(=O)(=O)Nc2ccc(-c3cn4c(C)csc4n3)cc2)cc1,inactive: 5.07%,–
COC(=O)c1cc(S(=O)(=O)N2CCN(c3cccc(C)c3)C(C)C2)c[nH]1 (stereo not drawn),inactive: 26.3%,–
COc1ccccc1-c1cc(C(F)(F)F)nc(S(=O)(=O)CCCC(=O)Nc2cc(C)ccc2O)n1,inactive: 17.4%,–
COc1cccc(-n2c(=O)c3sc4ccccc4c3n(CC(=O)Nc3ccccc3OC)c2=O)c1,inactive: 19.7%,–
Cc1ccc(-n2nc(CO)c(C(=O)NCCc3ccccc3)n2)cc1,inactive: 8.02%,–
Cc1ccc(Cl)cc1N1CCN(C(=O)Cn2ncc3c([nH]c4ccccc43)c2=O)CC1,inactive: 2.13%,–
CCC(Sc1nc2ccncc2[nH]1)C(=O)Nc1ccc(F)cc1 (stereo not drawn),inactive: -2.33%,–
CCOC(=O)N1CCN(C(=O)c2ccc3c(c2)N(Cc2cc(C)ccc2C)C(=O)c2ccccc2S3=O)CC1 (stereo not drawn),inactive: -0.858%,–
Cc1cc(C)cc(NC(=O)C(NS(=O)(=O)c2cccc3nsnc23)c2ccccc2)c1 (stereo not drawn),inactive: -3.12%,–
Cc1ccc(Cn2cnc3c(oc4ccccc43)c2=O)cc1,inactive: 6.76%,–
O=C(CSc1nnc(-c2ccc(Cl)cc2)o1)N1CCc2ccccc21,inactive: 3.4%,–

# Reference: PubChem BioAssay AID1508642 (National Center for Advancing Translational Sciences (NCATS), 2021)
